Whole data set: some 33,000 sequences, median “E-score (-0.5 to 0.5)” near -0.035, cut for the highest 2% near 0.35. This is one part of the list.
Target: T1, Pdr3 (UniProt P33200)
T1 sequence: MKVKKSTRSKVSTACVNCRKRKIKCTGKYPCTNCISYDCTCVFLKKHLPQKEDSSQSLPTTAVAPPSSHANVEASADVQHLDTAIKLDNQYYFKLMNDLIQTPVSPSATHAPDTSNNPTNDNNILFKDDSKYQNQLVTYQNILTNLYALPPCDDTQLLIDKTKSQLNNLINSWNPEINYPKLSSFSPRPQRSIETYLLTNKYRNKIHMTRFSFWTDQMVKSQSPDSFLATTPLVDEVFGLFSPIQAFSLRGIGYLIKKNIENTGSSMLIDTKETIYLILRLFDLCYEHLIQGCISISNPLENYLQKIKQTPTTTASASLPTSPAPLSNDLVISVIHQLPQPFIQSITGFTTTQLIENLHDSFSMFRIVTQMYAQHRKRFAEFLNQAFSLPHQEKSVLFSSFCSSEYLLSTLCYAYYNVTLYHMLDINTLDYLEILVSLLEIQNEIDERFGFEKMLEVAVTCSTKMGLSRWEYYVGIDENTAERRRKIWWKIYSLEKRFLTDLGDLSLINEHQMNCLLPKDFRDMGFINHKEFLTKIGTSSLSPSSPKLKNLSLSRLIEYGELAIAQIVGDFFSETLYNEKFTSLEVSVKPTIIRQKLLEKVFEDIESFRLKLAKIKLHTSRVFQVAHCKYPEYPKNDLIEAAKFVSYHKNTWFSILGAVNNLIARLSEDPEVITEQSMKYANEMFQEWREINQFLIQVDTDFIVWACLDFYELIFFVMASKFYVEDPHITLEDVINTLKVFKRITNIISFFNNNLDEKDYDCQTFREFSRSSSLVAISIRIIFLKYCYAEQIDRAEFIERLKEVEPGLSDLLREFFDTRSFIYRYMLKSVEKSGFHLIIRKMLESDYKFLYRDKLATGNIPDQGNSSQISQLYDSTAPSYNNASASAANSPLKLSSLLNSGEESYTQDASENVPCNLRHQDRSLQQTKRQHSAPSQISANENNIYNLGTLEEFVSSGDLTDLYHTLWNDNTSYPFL
Experiment: PBM E-score (8-mer binding enrichment) (E-score (-0.5 to 0.5)); higher = stronger / more preferred TF binding; most listed sequences are background and not binding sites
Details: protein concentration: 200 nM; construct: GST-full length
Procedure, shortened: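 PURExpress in vitro transcription/translation supplied GST-tagged yeast transcription factors, either full-length or DNA-binding domain. Applied at about 100-200 nM to universal all-10-mer Agilent arrays double-stranded by primer extension, the bound protein was detected with fluorescent anti-GST. E-scores, modified Wilcoxon-Mann-Whitney statistics, were given by the Universal PBM Analysis Suite to ungapped eight-base words pooled with their reverse complements after masliner normalisation.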

| Sequence | PBM E-score |
| --- | --- |
| TCGTCGCA | 0.00149 |
| CGGAAAGA | 0.428 |
| GAGCTGCC | 0.146 |
| CCAAACTA | 0.0387 |
| AACGAACT | -0.245 |
| GACACTGC | -0.0546 |
| CCATAACC | -0.0883 |
| CACAATCC | 0.0118 |
| AAGGAGCA | 0.0482 |
| CTCGACAG | -0.231 |
| ACTCACGA | -0.107 |
| ATTTTTAG | -0.0807 |
| CTGGTGTC | 0.00867 |
| GTTGTCTA | -0.0319 |
| ATCGACAG | 0.086 |
| CACACAGA | 0.0465 |
| AGCCTAAG | -0.325 |
| TATCGATA | 0.0405 |
| ACCTGGAT | -0.0897 |
| GGAGTAGA | -0.0124 |
| ACGCGTAT | 0.0393 |
| ACTGTCCA | -0.141 |
| CCAAGACG | -0.207 |
| CTTGTCGA | -0.344 |
| AGCTGGTC | -0.142 |

| Sequence | PBM E-score |
| --- | --- |
| AACCTATA | -0.0565 |
| CGTCTAAG | -0.0365 |
| AGAGCCAT | -0.117 |
| GCCAGTCC | 0.151 |
| AGACCCCG | 0.305 |
| CTGCACTC | 0.0492 |
| CAGTTCCG | 0.473 |
| AAATTTGG | -0.169 |
| ATAAGCGC | -0.0339 |
| ATGAGTCC | 0.0278 |
| ACTGTTTC | -0.0908 |
| AGCCCGAC | -0.0808 |
| ACCTATCT | -0.0766 |
| GACCCCTA | -0.308 |
| GATCGAGC | 0.159 |
| CCCACGTC | 0.0696 |
| GACAAAGC | 0.103 |
| AATGAGGG | -0.0114 |
| CTTGCACA | -0.203 |
| CGCGGCAG | 0.312 |
| CTTTAATA | 0.056 |
| ACATGCAG | -0.142 |
| CTACCGAG | -0.112 |
| CTAGTGGC | -0.197 |
| AACAGGTA | -0.0621 |

| Sequence | PBM E-score |
| --- | --- |
| AATAGGCC | -0.0385 |
| AGACAAAC | -0.147 |
| CGTCGAAC | -0.251 |
| CCACCCGG | 0.359 |
| AACAAACT | -0.0344 |
| ACTCAAAG | -0.118 |
| CAAACGAA | -0.173 |
| AGTGGTCA | -0.0663 |
| ATGAGGTC | -0.076 |
| CCGGATGA | 0.316 |
| AAGCGTGA | -0.0291 |
| AGCAAGCC | -0.0699 |
| CCTCGACC | -0.141 |
| CTCAGCGA | 0.00309 |
| CGCATGTC | -0.0251 |
| GATACATA | 0.101 |
| CACGAGAG | -0.169 |
| AATGGGAT | 0.0112 |
| GACCTGAA | 0.121 |
| CTAATCTC | -0.0806 |
| TCAGCTAA | -0.191 |
| ACACCAGA | -0.0097 |
| AAACGTTA | -0.144 |
| CCAAGGGC | -0.204 |
| CGGAACCG | 0.482 |

| Sequence | PBM E-score |
| --- | --- |
| CGTAACCA | -0.0722 |
| CCTTCCCC | -0.014 |
| AATGGACT | -0.158 |
| CTGACTGA | -0.205 |
| TTTAGAAA | -0.193 |
| CGATCTCC | 0.174 |
| CGGTTTAC | -0.0106 |
| AGTCCTGA | -0.159 |
| GCTCTATA | -0.195 |
| CGCGCGAG | 0.211 |
| AGAACAAA | 0.0444 |
| CAGCTAGC | -0.123 |
| AAAGTGGG | -0.039 |
| AATTATAT | 0.177 |
| CTTAAGAC | -0.108 |
| CCGCGTAA | 0.121 |
| ATGCGCTA | -0.0765 |
| TAGTCAAA | -0.249 |
| CATTGAGC | -0.0845 |
| CGATCTTA | -0.0395 |
| CGAAGAGC | 0.132 |
| ACGGTCCT | -0.277 |
| TTACGGAA | 0.419 |
| GTTAGTCA | -0.127 |
| CACGCAAG | -0.0453 |

| Sequence | PBM E-score |
| --- | --- |
| ACTGCACC | 0.0857 |
| CGGGGACA | 0.191 |
| ATGATGGG | -0.173 |
| AGTGCCGG | 0.314 |
| AACCGTGT | 0.0441 |
| ACGAGACG | -0.0794 |
| GTTTGCCA | -0.139 |
| AAACCCAT | 0.0748 |
| CACTAAGC | -0.209 |
| AGCTTGAT | -0.151 |
| ATAGCAAG | 0.0243 |
| GCGTCAAC | -0.0938 |
| AAAATCGA | -0.00634 |
| GCGTCTGA | -0.0432 |
| AAAATCCG | 0.272 |
| ATACTATA | 0.0783 |
| CGATGCGC | 0.0922 |
| CGTAAAAG | 0.00583 |
| AACGATAT | 0.0545 |
| CAACTCAA | 0.0122 |
| CTGAGGCA | -0.206 |
| CGTCACGC | -0.0594 |
| AAAACAAA | -0.0167 |
| GCATTTAC | -0.22 |
| AATAGTTG | 0.0675 |

| Sequence | PBM E-score |
| --- | --- |
| CCCGATCC | 0.152 |
| CAGAGGTC | -0.03 |
| GAGGGCGA | -0.0395 |
| CTGATTCC | 0.15 |
| AAGCACGA | -0.01 |
| CACGCCAC | -0.201 |
| CGGATTCC | 0.454 |
| AGGTAACC | -0.102 |
| ACACCAAA | -0.00159 |
| GCTGGAAC | 0.0129 |
| GCACGTGC | 0.0474 |
| AAGGCAAG | -0.199 |
| AGGAAGTC | -0.162 |
| AAGTCAGT | 0.0202 |
| AGTAATGA | -0.0717 |
| CGCGCCTC | 0.153 |
| GCCCGACC | -0.043 |
| AGTAGATA | 0.0738 |
| CGAGGAGA | -0.166 |
| ACAGCGCG | 0.0436 |
| ATCTGTGC | -0.164 |
| AGCCCACC | 0.0979 |
| GGGAAAAA | 0.176 |
| ACATTGAT | 0.198 |
| AGTTGCCC | 0.0877 |

| Sequence | PBM E-score |
| --- | --- |
| GGCATATA | 0.102 |
| ACCGCTGA | -0.0164 |
| AATAAACA | 0.0464 |
| AGGTGGGA | -0.217 |
| GATCATGC | -0.0268 |
| CTAGGGTA | -0.217 |
| ACCTCGAC | -0.0368 |
| GTTCCAAA | -0.00321 |
| AATAGCAG | -0.158 |
| AATCGGTG | -0.124 |
| ATTCTATC | -0.0228 |
| AGGACACC | 0.0445 |
| TAAAAACA | -0.116 |
| GCACAGCC | 0.0522 |
| ACCCGATG | 0.188 |
| GCCGACAA | -0.0102 |
| ATCTTTGA | -0.0512 |
| CTTCAGCA | -0.227 |
| AAGACTAG | -0.338 |
| GTCTTGAA | -0.0317 |
| AAGCCCGT | -0.162 |
| AATGGGAG | -0.023 |
| ACGTTGTG | -0.0586 |
| CGGCGACA | 0.164 |
| GAGAAATC | -0.0602 |

| Sequence | PBM E-score |
| --- | --- |
| ACGTCTCC | -0.107 |
| GACTCCGA | 0.253 |
| CCAAACGC | -0.174 |
| TGGGTAAA | -0.135 |
| ATCACCCC | 0.0523 |
| AACTTATC | 0.179 |
| GCGCGTCC | 0.127 |
| AGCCCAGA | -0.0226 |
| CCTAGCCG | 0.0212 |
| CTAAAAAC | -0.214 |
| AAGGGGCG | -0.0939 |
| AAGACCAA | -0.0835 |
| GCGCTTCA | 0.052 |
| GAGACTGC | -0.0707 |
| AAACTATG | -0.116 |
| ACGTTAAA | -0.113 |
| CCCTGCGC | -0.0563 |
| TCGTGTCA | -0.13 |
| ACTGATTA | 0.0019 |
| CGTTAAAG | 0.0707 |
| CGTGCTTC | 0.175 |
| CCACGTAG | -0.26 |
| AAACCGAT | -0.024 |
| CAGCGGCC | 0.155 |
| CGTTATAG | -0.0382 |

| Sequence | PBM E-score |
| --- | --- |
| ATGTGGTG | 0.0352 |
| GCGGCTCA | 0.0896 |
| CATTTCTC | 0.0391 |
| TGAGAAAA | -0.138 |
| GCACTGCC | 0.0958 |
| AACCCCCA | -0.111 |
| GAGGTTCA | 0.0391 |
| ACAACAGA | -0.236 |
| CGTACTTC | 0.181 |
| ATAGGCAG | -0.0967 |
| ACATATCG | -0.0946 |
| TACCCGAA | 0.198 |
| CGCACCTA | -0.177 |
| CTAACAAG | -0.354 |
| ACGTTCCT | 0.0124 |
| GGAATACA | 0.277 |
| ACCAAGAG | -0.183 |
| CGGCGCCC | 0.21 |
| GAGCTCAA | 0.153 |
